Data published in PMC4052767 (Genes & Development, 2014).

T1: Yeast Hat2p (full length) with N-terminal 6xHis tag (yeast (Saccharomyces cerevisiae), UniProt P39984 1-401)
T1 sequence: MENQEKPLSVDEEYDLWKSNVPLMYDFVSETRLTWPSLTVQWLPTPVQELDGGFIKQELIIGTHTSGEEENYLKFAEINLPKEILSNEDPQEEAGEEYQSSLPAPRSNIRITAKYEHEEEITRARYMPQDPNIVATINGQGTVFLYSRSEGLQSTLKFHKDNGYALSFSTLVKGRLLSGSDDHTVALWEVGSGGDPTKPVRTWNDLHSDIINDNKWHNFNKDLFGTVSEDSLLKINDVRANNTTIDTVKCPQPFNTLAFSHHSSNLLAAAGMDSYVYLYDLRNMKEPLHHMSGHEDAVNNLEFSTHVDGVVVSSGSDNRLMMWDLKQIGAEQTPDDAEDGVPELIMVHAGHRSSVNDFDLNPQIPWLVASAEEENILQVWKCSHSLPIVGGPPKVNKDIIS


Experiments:
[1] = target: T1, Yeast Hat2p (full length) with …; experiment: crystal structure
Yeast Hat1p (1-320) = Yeast Hat1p (1-320) (yeast (Saccharomyces cerevisiae), UniProt Q12341 1-320); experiment: crystal structure
Hat1p/Hat2p complex [2] = target: T2, Hat1p/Hat2p complex (yeast (Saccharomyces cerevisiae), UniProt Q12341;P39984); experiment: crystal structure
Hat1p/Hat2p complex [3] = target: T2, Hat1p/Hat2p complex; experiment: pull-down

Binder | binding result [1] | binding result (Yeast Hat1p (1-320)) | binding result (Hat1p/Hat2p complex [2]) | binding result (Hat1p/Hat2p complex [3])
Yeast histone H4 ([…]) peptide (domain or fragment) not shown | binds | binds | binds | 
GST-H4_([…]) (domain or fragment) not shown |  |  |  | binds
